Measured values: ChEMBL document CHEMBL4888484, “Replenishing the malaria drug discovery pipeline: Screening and hit evaluation of the MMV Hit Generation Library 1 (HGL1) against asexual blood stage Plasmodium falciparum ,using a nano luciferase reporter read-out” (2022)
“And” between values parts separate entries of the source, which are not always exact repeats. Equal entries are not always repeated. About 540 (0.36%) of roughly 150,000 compounds showed an effect of 50% or more. Some of the results follow.

Test system: Plasmodium falciparum
Experiment: Primary screen in NF54 nanoGlo assay, in single point, at 2uM, 72h; a lower Z score goes with more inhibition
Format: functional, Erythrocyte
Details: timepoint 72 hour

SMILES	% Inhibition [%]	Z score	% Inhibition (2 µM)	Z score (2 µM)
CCc1nnc(-c2coc(S(=O)(=O)N3CCN(c4ccc(C)cc4)CC3)c2)o1	-6	0.76		
CCOCCC1(CN=C(N)N2CCCCC2)CCCC1	36	-4.9		
Cc1cc(C(F)(F)F)nn1CC(=O)N1CC[C@H](n2c(C)cnc2-c2ccncc2)C1	-19	2.36		
C[C@@H](CCc1ncnn1Cc1ccccc1Cl)N1CCN(C)CC1	-1	0.13		
Cc1ccc(C)c(NC(=O)Cn2c(C)cc(-c3nnc(C4CCC4)o3)c2C)c1	-9	1.81		
O=C(Cc1ccc(N(Cc2cccc(F)c2)C(=O)C2CCCC2)cc1)NCCN1CCCC1	25	-2.85		
CCn1ccnc1CNc1cccc2c1OCCO2	-23	1.95		
CC(=O)N[C@@H](Cc1c[nH]c2ccccc12)C(=O)Nc1ccc(C)c(C)c1	-1	0.3		
Cc1ccc(-n2c(=O)c3sccc3n(CC(=O)Nc3nc4ccccc4s3)c2=O)cc1C	2	-0.22		
O=S(=O)(NCCn1cc(-c2ccoc2)cn1)N1CCOCC1	-4	0.68		
CCOC(=O)c1sc2nc(-c3ccc(C)c(C)c3)c(NCc3ccc(C)cc3)n2c1C	5	-0.6		
Cc1cc(S(=O)(=O)O)c(N)cc1C(C)C			-11% and -3%	1.24 and 0.45
COc1ncc(NC(=O)C2CCCC2)cn1	-7	1.31		
O=C(Nc1ccc(/C=C\c2ccccc2)cc1)c1cccc(C(=O)Nc2ccc(/C=C\c3ccccc3)cc2)c1	-3	0.49		
CCCNC(=O)OC[C@H]1CCCCN1Cc1cn(C(C)C)nc1C	-4	0.65		
CCOc1ccc(CC(=O)N2Cc3cncnc3C2)cc1	-9	1.48		
CC(C)c1ccc([C@H](C(=O)Nc2ccc(N(C)C)cc2)N(Cc2ccc(F)cc2)C(=O)CN2C(=O)C(=O)c3ccccc32)cc1	32	-3.6		
Cc1cc(C)c(S(=O)(=O)Nc2ccc(C)cc2-c2nc3ccccc3[nH]c2=O)c(C)c1	-2	0.29		
Cc1noc(C)c1CC(=O)NC1CCOCC1	4	-0.62		
Fc1ccccc1Oc1nc(N2CCOCC2)nc2c1CN(Cc1ccc(C(F)(F)F)cc1)CC2	2	-0.23		
COc1cc(F)cc(CNC(=O)NCc2csc(N(C)C)n2)c1	13	-1.55		
CN(C(=O)CCCOc1cccnc1)c1cc(F)ccc1F	-13	1.11		
Cc1nc(-c2cccc(F)c2)nc(N2CCN(C(=O)Nc3ccc(C(F)(F)F)cc3)CC2)c1Cc1ccccc1	-6	0.97		
CC[C@]1(CO)CCCN(c2ccc(Cn3nc(C)cc3C)cn2)C1	-19	3.39		
O=C(C(c1ccccc1)c1ccccc1)N1Cc2cnc(N3CCOCC3)nc2C1	-5	1.02		
COc1ccc(Oc2c(CN(C[C@H]3CCCO3)C(=O)c3ccc(Cl)cc3)c(-c3ccccc3)nn2C)cc1	-12	1.17		
CCn1nccc1-c1ccc(C(=O)C2CCC2)cc1	-7	0.76		

SMILES	% Inhibition [%]	Z score	% Inhibition (2 µM)	Z score (2 µM)
N#Cc1cccc(S(=O)(=O)Nc2cccc3c2CCNC3)c1	3	-0.61		
CN(Cc1ccoc1)C(=O)[C@@H]1CCC(=O)NC(=O)N1	11	-1.38		
O=C(c1ccccc1-c1ccccc1)N1C[C@H]2C[C@H](O)[C@@H](O)C[C@H]2C1	2	-0.52		
O=C(c1ccc2[nH]nnc2c1)N1CCn2nc([C@@H](O)C3CC3)cc2C1	-10	0.97		
O=C(C1CC=CCC1)N1CCC2CCCCC21 (stereo unspecified)	-8	1.07		
c1ccc2c(c1)CCN(c1nnc(C3CC3)n1C[C@H]1CCOC1)C2	-14	2.08		
C#CCCC1(CCC(=O)N2CCN(C3CCC3)CC2)N=N1	-14	1.73		
CCN1CCN(C(=O)NCc2cc(-c3ccccn3)no2)CC1=O	-10	1.82		
Fc1ccc(-c2cnc3n2C[C@H](CNCc2ccccn2)OC3)cc1	11	-1.22		
Cc1cc(-c2c(-c3ccccc3)ncn2CCN2CCCOC2=O)[nH]n1	-10	0.95		
CN(C)c1ccc(-c2ccc(C(=O)NCCN3CCCC3=O)cc2)nn1	-19	3.54		
O=C(CCN1C(=O)CCC1=O)Nc1nc(C(F)(F)F)cs1	-11	1.83		
Cc1cc(N2CCN(C(=O)Nc3ccc4ccccc4c3)CC2)nc(N2CCOCC2)n1	-8	1.16		
Cc1n[nH]c(-c2ccc(S(=O)(=O)N3CCN(C)CC3)s2)c1C	-9	1.42		
Cc1cc2c(cc1S(=O)(=O)NCc1ccncc1)NC(=O)CO2	-6	0.69		
Cn1cc(C(=O)Nc2cccc(OCC(F)F)n2)ccc1=O	-11	1.77		
CCN(CC)C(=O)c1ccc(S(N)(=O)=O)cn1	-9	1.47		
CC1(C)[C@@H](NS(=O)(=O)Cc2ccon2)[C@@H]1c1ccccc1	-15	1.93		
COc1ccccc1N1CC(=O)N=C1Nc1nc(C)cc(C)n1	-1	0.16		
O=S(=O)(NCc1ccccc1)c1ccc(-c2cc(C(F)(F)F)on2)o1	-6	0.99		
COC1CCCCCC1NC(=O)NC(C)CC(O)c1ccco1 (stereo unspecified)	0	0.03		
Cc1cnc([C@H](C)N2CCC(S(=O)(=O)N3CCCC3)CC2)o1	-14	2.67		
C#CCNC(=O)CNC(=O)c1ccc(F)c(Br)c1	-4	0.54		
NC(=O)CN1CCCN(C(=O)Nc2nc(C3CC3)cs2)CC1	-7	0.62		
O=C(Nc1nc2c(s1)CN(Cc1ccccc1)CC2)c1cccs1	-1	0.15		
CC(C)S(=O)(=O)N(C)C(=O)c1cccc(COc2ccccc2C#N)c1	-3	0.43		
